Measurements as given in the supplement of paper PMC3334620.
Over roughly 33,000 sequences, “E-score (-0.5 to 0.5)” has its median near -0.021; the highest 2% begin near 0.32. The list shows a part of the results.

Biological target: T1, Zap1 (UniProt P47043)
T1 sequence: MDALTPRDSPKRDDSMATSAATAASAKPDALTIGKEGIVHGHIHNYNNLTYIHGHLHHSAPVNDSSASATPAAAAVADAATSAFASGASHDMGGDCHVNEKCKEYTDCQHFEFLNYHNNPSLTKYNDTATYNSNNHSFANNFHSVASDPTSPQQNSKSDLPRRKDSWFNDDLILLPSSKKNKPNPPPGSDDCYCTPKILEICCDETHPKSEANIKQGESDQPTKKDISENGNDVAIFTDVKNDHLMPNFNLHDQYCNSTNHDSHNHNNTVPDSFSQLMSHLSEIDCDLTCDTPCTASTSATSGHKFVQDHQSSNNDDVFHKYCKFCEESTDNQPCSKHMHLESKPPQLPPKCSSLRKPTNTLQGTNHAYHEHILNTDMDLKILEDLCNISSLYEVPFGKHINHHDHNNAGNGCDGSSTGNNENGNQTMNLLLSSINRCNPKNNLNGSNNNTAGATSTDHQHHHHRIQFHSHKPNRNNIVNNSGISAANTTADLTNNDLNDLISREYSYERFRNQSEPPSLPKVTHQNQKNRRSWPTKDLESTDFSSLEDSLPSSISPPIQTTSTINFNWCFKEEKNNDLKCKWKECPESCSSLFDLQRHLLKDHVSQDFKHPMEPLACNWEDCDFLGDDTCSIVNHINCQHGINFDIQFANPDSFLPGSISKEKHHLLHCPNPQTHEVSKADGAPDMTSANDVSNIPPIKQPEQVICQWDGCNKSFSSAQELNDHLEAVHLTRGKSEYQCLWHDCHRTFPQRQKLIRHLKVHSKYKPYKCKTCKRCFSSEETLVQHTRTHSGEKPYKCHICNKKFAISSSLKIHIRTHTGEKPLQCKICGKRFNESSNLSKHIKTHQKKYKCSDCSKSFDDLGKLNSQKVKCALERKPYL
Experiment: PBM E-score (8-mer binding enrichment) (E-score (-0.5 to 0.5)); higher = stronger / more preferred TF binding; most listed sequences are background and not binding sites
Conditions: protein concentration: 200 nM; construct: GST-full length
Procedure: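 Universal 'all 10-mer' protein binding microarrays (Agilent AMADID 015681) probed with GST-tagged S. cerevisiae TFs (full-length or DBD) made by in vitro transcription/translation (PURExpress), about 100-200 nM. Bound TF was detected with fluorescent anti-GST. Each ungapped 8-mer (which stands for itself and its reverse complement) is scored by the PBM enrichment score (E-score), a modified Wilcoxon-Mann-Whitney statistic from -0.5 to +0.5, computed with the Universal PBM Analysis Suite. Scale: above 0.35 generally sequence-specific binding.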

| Sequence | PBM E-score |
| --- | --- |
| TACGACAA | 0.0958 |
| CGCGTACC | -0.0155 |
| AGAAGATG | 0.0389 |
| ACAGGTAT | 0.112 |
| ACCACTCC | 0.158 |
| CTACAGTC | -0.0915 |
| GTGCGAAC | -0.219 |
| AGCCTTTA | 0.132 |
| ATCGCGGA | -0.0629 |
| AGATCCGG | -0.0775 |
| CCATGTTC | -0.192 |
| GACGCGAA | -0.12 |
| AAAAGAAT | -0.00144 |
| ACGCACGT | -0.142 |
| ACGATAGA | -0.0715 |
| CTGCAGTA | -0.22 |
| TCTAAAAA | 0.168 |
| ACCTTTTC | 0.254 |
| CCCGCCGC | 0.202 |
| TGAAAGAA | 0.158 |
| GTTTGACA | -0.0724 |
| AAGGGGAG | -0.298 |
| CGGGTAGA | 0.133 |
| CATCACCA | 0.246 |
| ATTTGCGA | 0.0692 |

| Sequence | PBM E-score |
| --- | --- |
| CCTCCACG | 0.0201 |
| CTACCGAC | -0.0369 |
| ATTTTGAC | 0.203 |
| GCCCAGCC | -0.197 |
| AAAACGGT | 0.109 |
| GACTATAA | 0.139 |
| ACTGATCC | -0.136 |
| AACCACCC | 0.353 |
| GCAAAACC | 0.0439 |
| AAACAAAT | 0.179 |
| CTGAAACC | 0.268 |
| CAATTACG | -0.0184 |
| AATCACAG | -0.0415 |
| CCCTAGAA | 0.177 |
| ACACGTAT | -0.0502 |
| CAGAACGG | -0.0637 |
| CGTCCCGA | -0.14 |
| CGAAATTC | -0.0272 |
| AAGTACCT | 0.213 |
| ATGCTGGC | -0.157 |
| ACGATCAC | 0.116 |
| AATAGCCC | -0.0444 |
| ATTGGTTA | 0.402 |
| CGGAAATA | 0.104 |
| AACTGCTT | -0.148 |

| Sequence | PBM E-score |
| --- | --- |
| TACGCGGA | -0.102 |
| ACGCCGCG | 0.0461 |
| AGAATGTA | 0.0274 |
| GGTTGCAA | 0.301 |
| CCCGAACA | -0.0104 |
| GAGGATAA | -0.0105 |
| ACTGAACA | 0.133 |
| AGGGCTGA | -0.15 |
| TACACATA | -0.0262 |
| AGGTAGCG | 0.232 |
| GCATATGC | -0.213 |
| ACGCCGGC | 0.18 |
| AGCAAGAG | -0.163 |
| AAGTAAAT | 0.211 |
| ATGGACAC | 0.201 |
| CTGCTTTC | -0.131 |
| AGGGCCGA | -0.13 |
| ACGCGGCA | -0.0868 |
| CGGTAGCA | 0.117 |
| CAGGATGC | -0.182 |
| AGCTGTGC | -0.254 |
| AAGCATGC | -0.137 |
| GAAAAGAA | 0.0406 |
| ATTTTCCC | -0.0341 |
| GGCACACC | -0.194 |

| Sequence | PBM E-score |
| --- | --- |
| CGACTAAG | -0.121 |
| GTATTTAA | 0.19 |
| TCTACGAA | -0.068 |
| TCTGCAGA | -0.155 |
| ATTTGATA | 0.0282 |
| AGCATACT | -0.237 |
| AGATCTAG | -0.26 |
| CCATACTA | 0.174 |
| CTCGTACC | -0.0636 |
| ACGTAAGG | -0.112 |
| GCCTCGAC | -0.0283 |
| ATACACCA | 0.114 |
| ATAGATAT | -0.0181 |
| ACAACCTG | 0.23 |
| AGTGTCGC | -0.0555 |
| AGTGGGAG | -0.312 |
| ATCGCAAA | -0.0123 |
| GAGCACTA | -0.227 |
| AGCGTTGG | -0.0819 |
| GCTGCCCA | -0.0561 |
| AAGATGGA | -0.202 |
| GCTAATCA | 0.00226 |
| CGAAGTCA | -0.104 |
| ATTCGCTC | -0.179 |
| TATTGCCA | -0.0876 |

| Sequence | PBM E-score |
| --- | --- |
| GCGCTGGA | -0.129 |
| ACAGCTCC | -0.18 |
| GATGTTCC | -0.0651 |
| AAATGTAG | 0.0123 |
| TACAATCA | -0.073 |
| ATTCGTAC | 0.0885 |
| AAGAGATA | -0.0556 |
| GATCGACA | 0.0122 |
| CGTGCTAA | -0.0305 |
| CCATTTGA | 0.0279 |
| ACCCTCCC | 0.339 |
| AATCTTGT | -0.0484 |
| GTCGCAGA | 0.0891 |
| TACTCCAA | 0.155 |
| CTTCAGTC | -0.0626 |
| TCTTCGCA | -0.158 |
| AACGAAGG | -0.266 |
| ACGTCAAC | -0.045 |
| GATCAGGC | -0.163 |
| ATTGAGTG | -0.015 |
| AGTCTAGA | -0.295 |
| TCCAAGGA | -0.119 |
| CCTTCAGC | -0.0407 |
| CCGCGGAG | -0.0389 |
| CAGACATA | -0.126 |

| Sequence | PBM E-score |
| --- | --- |
| ACTAGCGA | -0.0181 |
| AAACGGCA | -0.169 |
| ATACATCA | 0.00689 |
| GTCTTCAA | -0.0252 |
| GGGCTCAA | -0.0971 |
| CAGAGGTA | 0.177 |
| GATGCCGC | -0.212 |
| GGATCCAC | -0.133 |
| GGCGTAGA | -0.194 |
| CGAGCTCG | -0.067 |
| CTAACACC | -0.0752 |
| AATTCGCA | 0.0147 |
| GATCACGA | 0.0169 |
| CCCTACGG | 0.313 |
| CGCGTAGC | -0.304 |
| GACACTAC | 0.0501 |
| CTAGAATA | 0.12 |
| ATACTCGC | 0.0732 |
| GCAATGGA | -0.0524 |
| ACTACCGG | 0.0974 |
| AAACAAGT | 0.147 |
| CTGGGGCC | 0.0294 |
| AGCCCCGC | -0.0894 |
| AAGTGGCA | -0.0883 |
| GATGCCCC | -0.25 |

| Sequence | PBM E-score |
| --- | --- |
| CTGCCTCA | -0.201 |
| GATTAGCA | -0.0698 |
| ATTGACCA | 0.0962 |
| TCGCAACA | -0.0496 |
| CGCTAATA | -0.087 |
| GTTAAACA | 0.217 |
| GCACCCCC | -0.147 |
| ACCGGGTG | 0.168 |
| ACCTGACG | -0.0534 |
| ACCGTGAT | 0.185 |
| TGGTCACA | 0.231 |
| GGGGAACC | 0.0229 |
| AGCAACCT | 0.155 |
| CTGACCAA | 0.273 |
| AGCAGTAC | 0.0549 |
| ACCACGTC | -0.0734 |
| CTCTCGTA | -0.171 |
| ATGTTGAG | -0.102 |
| AACTTTGG | 0.0932 |
| ACCACATC | 0.2 |
| GCAATTCC | -0.147 |
| AACAGGTG | -0.135 |
